# Reference: ChEMBL document CHEMBL4888484, “Replenishing the malaria drug discovery pipeline: Screening and hit evaluation of the MMV Hit Generation Library 1 (HGL1) against asexual blood stage Plasmodium falciparum ,using a nano luciferase reporter read-out” (2022)
# Out of some 150,000 compounds screened, about 540 (0.36%) showed an effect of 50% or more. This is one part of the list.
# Tested on: Plasmodium falciparum
# Assay: Primary screen in NF54 nanoGlo assay, in single point, at 2uM, 72h; a lower Z score goes with more inhibition
# Type: functional, Erythrocyte
# Conditions: timepoint 72 hour
Structure (SMILES),% Inhibition,Z score
CO[C@H](c1ccc(C)cc1)c1c(C)oc2cc(C#N)c(C#N)cc12,-9%,1.37
COCCC(NC(=O)C1CCCc2[nH]ncc21)c1ccc(Cl)cc1 (centres undefined),-14%,1.69
CC(C)(C)CC(=O)NC[C@H]1OC[C@@H](NCc2ccncc2)[C@@H]1O,-1%,0.16
COc1nc(C)c(-c2cccc(NC(C)=O)c2)c(C)c1C#N,2%,-0.48
CC(=O)N1CCCc2cc(-c3cnn(C)c3)ccc21,-12%,1.16
CC(=O)c1cc(-c2cccc3cccnc23)ccc1O,-3%,0.49
CCc1ncc(S(=O)(=O)N2CC(C)(C)[C@@H]2C2CC2)s1,-3%,0.35
CCCC(=O)n1nc(CC)c2c1CC(C)(C)CC2=O,-18%,2.41
O=C(NC[C@@H](CO)CC1CCCCC1)c1ccc2c(c1)OCCO2,-5%,0.5
O=C(NC[C@H](O)c1ccc(-c2ccco2)o1)NC1CCCC1,8%,-1.11
CCS(=O)(=O)c1cccc(CC(=O)N2CC(C)CC2c2ccccc2)c1 (centres undefined),1%,-0.09
CCCc1cc(N2CCc3c(nc(C4CC4)n3C)C2)n2ncnc2n1,-1%,0.15
O=C(c1ccc(Cl)cc1)n1c2ccccc2c2ccccc21,-9%,0.76
Cc1nnc(Cc2ccc(NC(=O)CCc3cc4n(n3)CCNC4)cc2)[nH]1,-12%,1.48
O=C1CCC[C@]2(c3ccccc3)NCCN12,5%,-0.69
O=c1ccc(-c2nc(-c3ccccc3F)no2)c[nH]1,-15%,1.65
CC(=O)Nc1ccc(CN2C[C@H](C(=O)O)[C@@H](c3ccc4c(c3)OCO4)C2)cc1,1%,-0.16
O=C(C(=O)N1CCCc2ccccc21)N1CCN(CCO)CC1,-4%,0.49
O=C(NCC1CCCCC1)N1CCC(c2nccn2CC2CCC2)CC1,8%,-1.37

Structure (SMILES),% Inhibition,Z score
CCc1nc(C)c([C@@H]2C[C@H](NC(C)=O)C[C@H](CCc3ccccc3)O2)[nH]1,-1%,0.14
O=C(CN1CCC(NC2CCCC2)CC1)NC1CCCCCCC1,12%,-1.18
CC[C@H](N)c1cc(Cl)ccc1Cl,-13%,1.3
Cc1cccc(-c2nsc3c(=O)n(CC(=O)NCCc4ccc(Cl)cc4)cnc23)c1,-8%,1.34
CC(C)c1nsc(NC2C(=O)NCCC2C)n1 (centres undefined),-16%,1.44
Nc1ccc(C(=O)NCCc2csc(-c3ncccn3)n2)cn1,-4%,0.74
COCCS(=O)(=O)N1CCC(CCN(C)C)CC1,-5%,0.64
Cc1cc(C)n(-c2nccn3nc(C)cc23)n1,-11%,2.08
O=C1NC2(CCCC2)C(=O)N1CCn1nc(C(F)(F)F)ccc1=O,-11%,1.7
CCc1[nH]c2ccc(CN[C@@H](C)Cn3nc(C)cc3C)cc2c1C,7%,-0.83
O=C1CN(C(=O)c2ncc3ccccc3c2O)CN1CCC(F)(F)F,-10%,1.51
COc1ccc(CN2CCOC[C@@H]2CC(=O)NCC2=CCCCC2)c(C)c1C,-3%,0.3
NCC1CN(C(=O)C2CCCc3ccccc32)CCO1 (centres undefined),-1%,0.08
COc1cccc(NS(=O)(=O)c2cc3c(cc2Br)C[C@H](C)N3C(C)=O)c1,-1%,0.09
O=C(Nc1ccc2c(c1)OCO2)N1CC(n2nccn2)C1,14%,-2.28
O=C(Cc1cccnc1)N1CCC[C@H](Oc2cnccn2)C1,-18%,3.14
Cc1nc(C)c(C)c(N2C[C@H](CO)[C@@H](CO)C2)n1,-4%,0.86
COCc1cc(-c2nc(C3(c4ccccc4)CCC3)no2)no1,5%,-0.9
CC[C@H](C)CS(=O)(=O)N(Cc1ccccn1)c1ccncc1,-6%,0.91

Structure (SMILES),% Inhibition,Z score
OCc1cccc(-c2ncnc3sccc23)c1,-10%,2.06
O=C(CCc1cc2n(n1)CCNC2)Nc1cccc(-c2cccnc2)c1,-25%,2.17
Cc1cnn(C)c1C(=O)Nc1nc(-c2cccs2)cs1,-10%,1.86
COCc1nc(C)cc(NCc2cc3n(n2)CCCO3)n1,-1%,0.2
Cc1nn(C)c2nc(NCCCn3ccnc3C)sc12,-11%,1.62
CCC1=C(C(=O)N(C)C2CCOC(c3ccc(F)cc3)C2)CCCO1 (centres undefined),-4%,0.54
CCc1nnnn1-c1ccccc1NC(=O)COC1CCCCC1,5%,-0.65
COc1ccc2oc(C(=O)N3CCC[C@H](Oc4ccnc(C)n4)C3)cc2c1,17%,-2.36
CCC1=NO[C@@H](Cn2ccc(-c3cccc(-c4ccncc4C)c3)n2)C1,6%,-0.84
CNC(=O)N1CCn2c(C3CCCC3)nnc2[C@@H]1C,-7%,0.96
Cc1ncsc1C(=O)NCc1nc(-c2cc[nH]c(=O)c2)no1,-9%,1.6
CN(C[C@H]1CCCCO1)C(=O)c1cccc(-c2cncn2C)c1,-14%,1.3
Cn1cc(NC(=O)N2CCC(N3CCOCC3)CC2)cn1,-5%,0.62
CCOc1ccc(S(=O)(=O)N(C)C)cc1N,-2%,0.29
Cc1ncc(CN(C)C(=O)C2CC(=O)NC(C)C2)s1 (centres undefined),-6%,0.53
Cc1nc(CN(CC(=O)O)CC(C)C)sc1C,0%,0.02
COc1cc(F)c(CN2CCOC2=O)cc1OC,-8%,1.5
COc1ccc(-c2c(C)nn(CC(=O)Nc3nn(C)c4ccccc34)c2C)cc1,-11%,1.54
N#CC1(Cn2ccc(C(F)(F)F)n2)CCC1,4%,-0.42
